This is an account of results in paper PMC4336329 (PLoS ONE, 2015).

Out of some 310,000 compounds screened, about 2,200 (0.71%) showed an effect of 50% or more. Effects have a minus sign here. The list shows a part of the results.

For this assay, the target named is human ether-à-go-go-related gene (hERG) potassium channel (human, UniProt Q12809). As to the kind of experiment: primary screen, population patch clamp on CHO cells stably expressing hERG.
Chain of human ether-à-go-go-related gene (hERG) potassium channel (Q12809 whole entry, looked up): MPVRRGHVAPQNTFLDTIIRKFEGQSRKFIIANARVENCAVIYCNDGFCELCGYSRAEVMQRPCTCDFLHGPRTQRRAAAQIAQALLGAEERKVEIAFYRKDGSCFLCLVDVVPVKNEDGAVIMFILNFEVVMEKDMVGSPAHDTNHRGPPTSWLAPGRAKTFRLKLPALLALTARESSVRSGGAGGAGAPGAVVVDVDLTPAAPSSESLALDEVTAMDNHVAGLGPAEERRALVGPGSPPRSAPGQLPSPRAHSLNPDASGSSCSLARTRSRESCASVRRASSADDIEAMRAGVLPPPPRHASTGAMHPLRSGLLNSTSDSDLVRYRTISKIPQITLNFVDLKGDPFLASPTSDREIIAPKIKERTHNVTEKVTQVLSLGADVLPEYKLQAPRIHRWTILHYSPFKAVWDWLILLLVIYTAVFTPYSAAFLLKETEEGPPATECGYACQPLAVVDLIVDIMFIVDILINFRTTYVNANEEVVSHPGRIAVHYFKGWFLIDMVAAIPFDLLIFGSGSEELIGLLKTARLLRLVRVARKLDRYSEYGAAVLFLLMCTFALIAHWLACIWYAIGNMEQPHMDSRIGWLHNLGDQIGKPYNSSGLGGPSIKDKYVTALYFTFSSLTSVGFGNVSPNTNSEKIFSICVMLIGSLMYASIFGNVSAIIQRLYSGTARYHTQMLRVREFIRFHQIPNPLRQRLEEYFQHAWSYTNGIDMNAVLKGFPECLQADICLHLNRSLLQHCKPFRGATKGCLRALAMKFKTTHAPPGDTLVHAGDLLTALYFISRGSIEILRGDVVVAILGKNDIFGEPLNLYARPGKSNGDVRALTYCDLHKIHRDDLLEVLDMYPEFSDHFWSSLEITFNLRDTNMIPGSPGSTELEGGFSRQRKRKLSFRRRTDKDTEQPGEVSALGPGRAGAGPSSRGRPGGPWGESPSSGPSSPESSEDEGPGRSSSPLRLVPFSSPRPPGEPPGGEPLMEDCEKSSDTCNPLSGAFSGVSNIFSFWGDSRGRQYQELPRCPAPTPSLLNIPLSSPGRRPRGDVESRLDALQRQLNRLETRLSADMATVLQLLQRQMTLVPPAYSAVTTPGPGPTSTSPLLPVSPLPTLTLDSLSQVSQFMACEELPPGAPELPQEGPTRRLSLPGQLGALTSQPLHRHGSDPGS
Turning to `CCOC(=O)N1CCC(N2CCCC(C(=O)c3cccc(OC(C)C)c3)C2)CC1` (stereo not drawn), the “hERG current change (%, negative = inhibition) at 1uM” value is listed as -61.3%.
Consider `CCCCN(C(=O)C1CCC1)c1c(N)n(CCC)c(=O)[nH]c1=O`, for which the “hERG current change (%, negative = inhibition) at 1uM” value turned out to be 11.4%.
Next, `CCOc1ccccc1N(CC(=O)Nc1ccc(OC)cc1)S(=O)(=O)c1ccccc1`: 4.66%; `Cc1nn(-c2ccccc2)c(N2CCCC2)c1/C=N/Nc1ccc(S(N)(=O)=O)cc1[N+](=O)[O-]`: 8.85%; `CCOc1ccccc1CN1CCN(C2CCSCC2)CC1CCO` (stereo not drawn): -7.19%.
Regarding `O=C1CCCCCN1CSc1nc2ccccc2s1`, the “hERG current change (%, negative = inhibition) at 1uM” value is given as 4.58%.
Take `COc1cccc(NC(=O)CC2C(=O)NCCN2C(=S)Nc2ccc(F)cc2)c1` (stereo not drawn): the “hERG current change (%, negative = inhibition) at 1uM” value was determined as 14.9%.
For `Cc1cccc(C)c1NC(=O)NC1(C(=O)NCC2CCCO2)CCCCC1` (stereo not drawn), the “hERG current change (%, negative = inhibition) at 1uM” value is given as 17.3%.
To `CCOC(=O)N1CCN(c2nc(=S)n(-c3ccccc3)c(C)c2C(C)=O)CC1` belongs 8.83%; to `Cc1nc2cc(N)ccc2n1C1CCCCC1.Cl`, 3.97%.
Take `Cc1cc(C)cc(OCC(=O)OCC(=O)NC2CCCCCC2)c1`: the “hERG current change (%, negative = inhibition) at 1uM” value turned out to be 16.9%.
Next, `CCOC(=O)c1cc(OC(=O)c2ccccc2OC)n(-c2ccccc2)n1`: -0.417%.
In the case of `Cc1ccc(S(=O)(=O)NC(C)C(=O)NCc2ccc(Cl)cc2)cc1` (stereo not drawn), the “hERG current change (%, negative = inhibition) at 1uM” value was 8.84%.
For the compound `CC1(C)CC(=O)C2=C(C1)N(c1ccccc1)C(N)=C(C#N)C2c1ccsc1` (stereo not drawn), the “hERG current change (%, negative = inhibition) at 1uM” value is listed as 4.01%.
Next, `Nc1nc2nccc(-c3ccco3)n2n1`: 10.7%; `COc1ccccc1/C=N/NC(=O)c1nnn(-c2nonc2N)c1-c1ccccc1`: 10.6%; `CN(C)P(=O)(Nc1cccc2ccccc12)Nc1cccc2ccccc12`: 20%.
Next, `CCOc1ccccc1N1C(=O)CC(Sc2n[nH]c(-c3ccccc3)n2)C1=O` (stereo not drawn): 11.9%.
Next, `N#Cc1ccc(CSc2nc(N)cc(N)n2)cc1`: 11%; `COc1cccc(NC(=O)NC2CCN(Cc3nnnn3Cc3ccc4c(c3)OCO4)CC2)c1`: 8.98%.
Consider `OCCC1CN(Cc2cccn2-c2ccccn2)CCN1C1CCCC1` (stereo not drawn), for which the “hERG current change (%, negative = inhibition) at 1uM” value is listed as 3.68%.
Next, `COC(=O)c1ccc(CSc2nc3c(c(=O)n2-c2ccc(C)cc2)SCC3)o1`: 5.62%; `COc1cc(OC)cc(C(=O)NNC(=O)C2CCCC2)c1`: 14.7%.
Next, `O=C(Cn1ccc([N+](=O)[O-])n1)N1CCCCC1`: -20.2%.
Next, `CC(C)c1ccc(NS(=O)(=O)c2ccc(N3C(=O)CCC3=O)cc2)cc1`: 10.6%; `COC(=O)c1ccc(Cn2nnc3c(=O)[nH]c(C4CCCN(S(=O)(=O)c5ccccc5Cl)C4)nc32)cc1` (stereo not drawn): 5.54%.
As for `CCOc1cc(NC(=O)Nc2ccc(F)cc2)c(OCC)cc1NC(=O)CC`, the “hERG current change (%, negative = inhibition) at 1uM” value was 16%.
With `CN(C)Cc1c(O)ccc2cc(-c3nc4ccccc4n3C)c(=O)oc12`, the “hERG current change (%, negative = inhibition) at 1uM” value came out at 13.9%.
Next, `Cc1cc(C)c2c(c1)/C(=N/NS(=O)(=O)c1ccccc1)CCC2`: 6.95%.
Next, `N/C(=N\S(=O)(=O)c1ccc(Cl)cc1)N1CCOCC1`: 12.4%.
As for `Brc1ccc(-c2noc(COc3ccc4c(c3)CCC4)n2)o1`, the “hERG current change (%, negative = inhibition) at 1uM” value was 5.71%.
To `CCCS(=O)(=O)N1CCN(C(=O)c2cccnc2)CC1` belongs 11.2%.
On to `CCOC(=O)c1cn(-c2ccc(F)c(F)c2F)c2c(F)c(F)c(F)cc2c1=O`, for which the “hERG current change (%, negative = inhibition) at 1uM” value worked out at 12.9%.
Next, `CSc1ccc(C2Nc3ccccc3-c3cc(C)nn32)cc1` (stereo not drawn): 1.55%; `CCn1c(SCC(=O)N/N=C/C=C\c2ccccc2[N+](=O)[O-])nnc1-c1ccccc1`: -12.5%; `O=C(CCC1CCCN(c2ncccn2)C1)NCc1ccccc1F` (stereo not drawn): 8.16%.
With `CCCC(c1nnnn1Cc1ccc2c(c1)OCO2)N1CCC(C(N)=O)CC1` (stereo not drawn), the “hERG current change (%, negative = inhibition) at 1uM” value is given as 10.3%.
On to `O=C(/C=C/c1ccc(S(=O)(=O)N2CCOCC2)cc1)NCCc1ccc(C(F)(F)F)cc1`, for which the “hERG current change (%, negative = inhibition) at 1uM” value is reported as 7.7%.
To `CCc1nn(-c2cc(Oc3cccc4ccccc34)nc(-c3ccccc3)n2)c(N)c1C#N` belongs 19.1%; to `COc1cc(OC)c2cc(C(=O)N[C@@H](Cc3ccccc3)C(=O)O)n(C)c2c1`, 5.81%.
Next, `CCN(CC)CCN=Cc1c(O)n(CCc2ccccc2)c(=O)[nH]c1=O`: 4.58%; `COc1ccc(CC(=O)Nc2cccc(C)n2)cc1OC`: 9.62%.
Next, `O=C(O)c1cc(N=Nc2c(O)[nH]c3ccc([N+](=O)[O-])cc23)ccc1Cl`: 13.3%.
For the compound `O=C(O)C1(c2cccc(Cl)c2)CCC1`, the “hERG current change (%, negative = inhibition) at 1uM” value worked out at 13.3%.
Next, `O=C(Nc1ccc(OC(=O)c2ccncc2)cc1)c1ccncc1`: 14.8%; `Cc1ccc(N2CC(C(=O)Nc3ccc(S(=O)(=O)Nc4nccc(C)n4)cc3)CC2=O)cc1` (stereo not drawn): 5.81%.
To `Cc1cc(OCC(=O)Nn2cnnc2)c(C)cc1Br` belongs 8.31%; to `COc1c(C(=O)NNC(=O)c2ccccc2Cl)csc1Br`, -1.89%.
Next, `O=c1cc(O)nc(SCc2ccccc2)[nH]1`: 6.77%; `O=[N+]([O-])c1ccc(CSc2nnc(SCc3ccc(Cl)cc3)s2)cc1`: 2.25%; `CCC/C(=N\O)c1c[nH]c2ccccc12`: 11.3%.
Regarding `CCN(c1ccccc1)S(=O)(=O)c1ccc(C(=O)N(C)CCc2ccc(OC)c(OC)c2)cc1`, the “hERG current change (%, negative = inhibition) at 1uM” value is 11%.
To `CCOc1cc(/C=C(\C#N)C(=O)Nc2cccc(C(=O)O)c2)cc(Br)c1OC(=O)c1ccc(OC)cc1` belongs 6.38%; to `c1coc(CN=C2NC(=NCc3ccco3)c3ccccc32)c1`, -30.1%; to `COc1cccc(C2NC(=O)NC(C)=C2C(=O)Nc2cccc(C)c2C)c1` (stereo not drawn), 11.6%.
Take `COCCCN1CC23C=CC(O2)C(C(=O)O)C3C1=O` (stereo not drawn): the “hERG current change (%, negative = inhibition) at 1uM” value was determined as 8.43%.
With `Cc1ccc(Nc2nc(CSc3nnc(-c4ccncc4)n3-c3ccccc3C)cs2)cc1`, the “hERG current change (%, negative = inhibition) at 1uM” value is 12.6%.
